Assay results from the supplement of paper PMC5919970.
Where a name gives a salt, the structure may show the parent alone. Over roughly 2,000 compounds, “fractional viability relative to vehicle” has its median near 0.92; the lowest 2% begin near 0.11. The list shows a part of the results.

System: TYKNU
Assay: fractional viability relative to vehicle; TYKNU is a high-grade serous ovarian cancer line; higher = less growth inhibition
Settings: 72 h, genotype: OPA1 knockout (sgOPA1 #2)
Method in brief: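 TYKNU control cells or lentiCRISPRv2 knockout derivatives were plated at 500 cells per well in duplicate into drug-stamped 384-well plates holding a ~2100-compound library at 2 or 10 μM. Culture was in RPMI 1640 with 10% FBS at 37 °C in 5% CO2, with 72 h of drug treatment. Viability was measured by Cell Titer Glo luminescence, and the averaged duplicate treatment wells were normalised to duplicate control wells at the same plate position.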

Row | Compound | fractional viability (2uM) | fractional viability (10uM)
1 | CCc1c(O)cc(O)c(C(=O)c2ccc(OCCN3CCOCC3)c(OC)c2)c1CC(=O)N(CCOC)CCOC | 0.791 | 0.482
2 | CNCCCC12CCC(c3ccccc31)c1ccccc12 [Maprotiline HCl] | 1.03 | 0.874
3 | Cc1coc2c1C(=O)C(=O)c1c-2ccc2c1CCCC2(C)C [Tanshinone IIA] | 0.599 | 0.327
4 | CN(C)Cc1cccc(N=C(c2ccccc2)c2c(O)[nH]c3cc(C(=O)N(C)C)ccc23)c1 | 1.13 | 0.78
5 | C[C@@H](O)[C@H]1C(=O)N2C(C(=O)O)=C(S[C@@H]3CN[C@H](C(=O)N(C)C)C3)[C@H](C)[C@H]12 [Meropenem] | 0.979 | 0.992
6 | Cn1nnc(-c2ccc3c(c2)[nH]c2nc(Cc4ccccc4)nc(NC4CCC(N)CC4)c23)n1 (stereo not drawn) | 1.01 | 0.765
7 | CC(=O)O[C@H]1C[C@@H]2CC[C@@H]3[C@H](CC[C@@]4(C)[C@H]3C[C@H]([N+]3(C)CCCCC3)[C@@H]4OC(C)=O)[C@@]2(C)C[C@@H]1N1CCCCC1 [Vecuronium Bromide] | 0.956 | 1.15
8 | C[C@]12C=CC(=O)C=C1CC[C@H]1[C@@H]3C[C@@H](O)[C@](O)(C(=O)CO)[C@@]3(C)C[C@H](O)[C@@]12F [Triamcinolone] | 1.25 | 1.11
9 | N#Cc1ccc(COC[C@H]2O[C@@H](n3c(NCc4ccc(Cl)c(Cl)c4)nc4c(N)ncnc43)[C@H](O)[C@@H]2O)cc1 | 0.698 | 0.364
10 | CC1(C)O[C@@H]2C[C@H]3[C@@H]4CCC5=CC(=O)CC[C@]5(C)[C@@]4(F)[C@@H](O)C[C@]3(C)[C@]2(C(=O)CCl)O1 [Halcinonide] | 1.02 | 0.893
11 | C[C@@H]1O[C@@H](OC[C@H]2O[C@@H](Oc3c(-c4ccc(OCCO)c(OCCO)c4)oc4cc(OCCO)cc(O)c4c3=O)[C@H](O)[C@@H](O)[C@@H]2O)[C@H](O)[C@H](O)[C@H]1O [Troxerutin] | 0.986 | 1
12 | CCN(CC)C(=O)/C(C#N)=C/c1cc(O)c(O)c([N+](=O)[O-])c1 [Entacapone] | 0.795 | 1.4
13 | COc1cccc2cc(-c3nc([C@H]4CC[C@H](C(=O)O)CC4)n4ncnc(N)c34)[nH]c12 | 0.597 | 0.36
14 | O=C1CCC[C@@H]2[C@H]3CCC[N+]4([O-])CCC[C@@H](CN12)[C@@H]34 (stereo partly drawn) [Oxymatrine] | 0.991 | 0.937
15 | CCN(CC)CCOC(=O)c1ccc(N)cc1 [Procaine HCl] | 1.02 | 1.12
16 | Clc1ccc(C(Cn2ccnc2)OCc2ccc(Sc3ccccc3)cc2)c(Cl)c1 (stereo not drawn) [Fenticonazole Nitrate] | 0.933 | 0.911
17 | CC[C@H](C)C(=O)O[C@H]1C[C@@H](C)C=C2C=C[C@H](C)[C@H](CC[C@@H]3C[C@@H](O)CC(=O)O3)[C@H]21 [Lovastatin] | 0.879 | 0.644
18 | COc1cc(C2Oc3cc([C@H]4Oc5cc(O)cc(O)c5C(=O)[C@@H]4O)ccc3OC2CO)ccc1O (stereo partly drawn) [Silibinin] | 1.18 | 1.15
19 | COc1cc(C2Oc3cc([C@H]4Oc5cc(O)cc(O)c5C(=O)[C@@H]4O)ccc3OC2CO)ccc1O (stereo partly drawn) [Silymarin] | 1.1 | 1.07
20 | O=c1cc(-c2ccccc2)oc2cc(O)c(O)c(O)c12 [Baicalein] | 0.842 | 1.05
21 | CC(=O)N[C@@H](CS)C(=O)O [Acetylcysteine] | 1.02 | 1.18
22 | C[C@]1(c2nc3c(C(N)=O)cccc3[nH]2)CCCN1 [Veliparib (ABT-888)] | 1.12 | 1.12

Row | Compound | fractional viability (2uM) | fractional viability (10uM)
23 | O=C(O)Cc1cccc(OCCCN(Cc2cccc(C(F)(F)F)c2Cl)CC(c2ccccc2)c2ccccc2)c1 | 0.952 | 0.951
24 | NC(=O)OCC(COC(N)=O)c1ccccc1 [Felbamate] | 1.06 | 0.93
25 | CCC[S+]([O-])c1ccc2[nH]c(NC(=O)OC)nc2c1 (stereo not drawn) [Albendazole Oxide] | 1.1 | 0.64
26 | Cc1ccnc(NS(=O)(=O)c2ccc(N)cc2)n1 [Sulfamerazine] | 1.07 | 0.897
27 | CNC[C@H](O)[C@@H](O)[C@H](O)[C@H](O)CO [Meglumine] | 1.2 | 1.07
28 | COC(=O)N[C@H](C(=O)N[C@@H](Cc1ccccc1)[C@@H](O)CN(Cc1ccc(-c2ccccn2)cc1)NC(=O)[C@@H](NC(=O)OC)C(C)(C)C)C(C)(C)C [Atazanavir Sulfate] | 1.14 | 0.875
29 | COC(=O)Nc1ccc(-c2nc(N3CCOCC3)c3cnn(C4CCN(C(=O)OC)CC4)c3n2)cc1 | 0.709 | 0.421
30 | CCCCNc1cc(C(=O)O)cc(S(N)(=O)=O)c1Oc1ccccc1 [Bumetanide] | 1.1 | 0.973
31 | C[C@H](Cn1cnc2c(N)ncnc21)OCP(=O)(O)O [Tenofovir] | 1.87 | 1.52
32 | CC(C)n1c(/C=C/C(O)CC(O)CC(=O)O)c(-c2ccc(F)cc2)c2ccccc21 (stereo not drawn) [Fluvastatin Sodium] | 0.763 | 0.639
33 | O=c1ccn([C@@H]2O[C@H](CO)[C@@H](O)[C@H]2O)c(=O)[nH]1 [Uridine] | 0.946 | 1.18
34 | CC1(C)S[C@@H]2[C@H](NC(=O)C(C(=O)O)c3ccccc3)C(=O)N2[C@H]1C(=O)O (stereo partly drawn) [Carbenicillin disodium] | 0.77 | 0.874
35 | CC(C)(C)C(=O)C(Oc1ccc(Cl)cc1)n1ccnc1 (stereo not drawn) [Climbazole] | 0.924 | 0.823
36 | CC(C)N(CCCNC(=O)Nc1ccc(C(C)(C)C)cc1)C[C@H]1O[C@@H](n2cc(Br)c3c(N)ncnc32)[C@H](O)[C@@H]1O | 1.04 | 1.06
37 | Cc1cc(NS(=O)(=O)c2ccc(N)cc2)no1 [Sulfamethoxazole] | 1.27 | 1.17
38 | Nc1[nH]nc2nnc(-c3c(-c4ccccc4)nn4ccccc34)cc12 | 0.889 | 1.07
39 | CCOC(=O)n1ccn(C)c1=S [Carbimazole] | 0.96 | 0.912
40 | COc1cc(N2CCC(N)CC2)ccc1Nc1ncc(Cl)c(-c2c[nH]c3ccccc23)n1 | 0.672 | 0.177
41 | CC1(C)O[C@@H]2C[C@H]3[C@@H]4CCC5=CC(=O)C=C[C@]5(C)[C@H]4[C@@H](O)C[C@]3(C)[C@]2(C(=O)CO)O1 [Desonide] | 0.977 | 1.08
42 | O=C(O)c1ccc2c(c1)nc(Nc1cccc(Cl)c1)c1ccncc12 [CX-4945 (Silmitasertib)] | 0.773 | 0.585
43 | NCCCCCNCC12CC3CC(CC(C3)C1)C2 [IEM 1754 dihydrobroMide] | 0.848 | 0.99
44 | O=C(/C=C/c1ccc(O)c(O)c1)c1ccc(O)cc1O [Butein] | 0.74 | 0.559

Row | Compound | fractional viability (2uM) | fractional viability (10uM)
45 | CC[C@H]1OC(=O)C[C@@H](O)[C@H](C)[C@@H](O[C@@H]2O[C@H](C)[C@@H](O[C@H]3C[C@@](C)(O)[C@@H](O)[C@H](C)O3)[C@H](N(C)C)[C@H]2O)[C@@H](CC=O)C[C@@H](C)C(=O)/C=C/C(C)=C/[C@@H]1CO[C@@H]1O[C@H](C)[C@@H](O)[C@@H](OC)[C@H]1OC [Tylosin tartrate] | 1.7 | 1.55
46 | O=C(CCCCCCC(=O)Nc1ccccc1)NO [Vorinostat (SAHA, MK0683)] | 0.589 | 0.233
47 | COC(=O)C1=C(C)NC(C)=C(C(=O)OC2CCCN(Cc3ccccc3)C2)C1c1cccc([N+](=O)[O-])c1 (stereo not drawn) [Benidipine HCl] | 1.03 | 0.739
48 | CCNC(=O)CCC/C=C\C[C@@H]1[C@@H](/C=C/[C@@H](O)CCc2ccccc2)[C@H](O)C[C@@H]1O [Bimatoprost] | 0.972 | 1.1
49 | COc1ccc(S(=O)(=O)Nc2cccnc2Nc2ccc(O)cc2)cc1 | 0.791 | 0.436
50 | Cc1ccc(NC(=O)c2cccc(N(C)C)c2)cc1NC(=O)c1ccc(O)cc1 | 1.14 | 1.09
51 | O=C1NCCc2[nH]c(-c3ccncc3)cc21 | 0.962 | 0.746
52 | O=c1cc(-c2ccccc2)oc2cc(O)cc(O)c12 [Chrysin] | 1.32 | 1.12
53 | Cc1cc(OCCCS(C)(=O)=O)cc(C)c1-c1cccc(COc2ccc3c(c2)OC[C@H]3CC(=O)O)c1 | 1.21 | 0.85
54 | CCN(CC)C(=S)SSC(=S)N(CC)CC [Disulfiram] | 0.302 | 0.205
55 | C=C[C@@]1(C)CC(=O)[C@]2(O)[C@@]3(C)[C@@H](O)CCC(C)(C)[C@@H]3[C@H](O)[C@H](OC(C)=O)[C@@]2(C)O1 [Forskolin] | 1.08 | 0.84
56 | O=C(CCCCCN1C(=O)c2cccc3cccc(c23)C1=O)NO [Scriptaid] | 0.538 | 0.229
57 | COc1cc2/c(=N/c3ccc(Br)cc3F)nc[nH]c2cc1OCC1CCN(C)CC1 [Vandetanib (ZD6474)] | 1.31 | 0.638
58 | CCOC(=O)C1=C(C)NC(C)=C(C(=O)OCC)C1c1ccccc1/C=C/C(=O)OC(C)(C)C [Lacidipine] | 1.04 | 0.853
59 | O=C(O)C(Cc1c[nH]c2ccccc12)N1C(=O)c2ccccc2C1=O (stereo not drawn) | 0.905 | 0.771
60 | CCOc1cc(CC(=O)N[C@@H](CC(C)C)c2ccccc2N2CCCCC2)ccc1C(=O)O [Repaglinide] | 0.909 | 0.926
61 | C#C[C@]1(O)CC[C@H]2[C@@H]3CCc4cc(O)ccc4[C@H]3CC[C@@]21C [Ethinyl Estradiol] | 1.11 | 0.692
62 | COc1cc(F)c(F)c(Nc2ccc(I)cc2F)c1NS(=O)(=O)C1(C[C@H](O)CO)CC1 [Refametinib (RDEA119, Bay 86-9766)] | 0.528 | 0.41
63 | O=C(O)c1ccc(N2C(=O)/C(=C\c3ccc(-c4ccc([N+](=O)[O-])cc4)o3)C=C2c2ccccc2)cc1 | 0.866 | 0.869
64 | O=S(=O)(c1ccccc1)N(CC(F)(F)F)c1ccc(C(O)(C(F)(F)F)C(F)(F)F)cc1 | 0.894 | 0.827
